These results are taken from the supplement of paper PMC10369915.

First the molecules themselves.
B1: ITGAV_Y404_I405V (peptide)
chain: KKGIVYVFNGR
B2: ITGA3_Y237 (peptide)
chain: WDLSEYSYKDP
B3: ITGA11_Y1098_L1093V (peptide)
chain: VKALKYKSMKI
B4: IRF8_Y110 (peptide)
chain: EPYKVYRIVPE
B5: IRS1_Y47_Y47C (peptide)
chain: ARLEYCENEKK
B6: ITGB2_Y125_D128N_YF (peptide)
chain: RRAKGYPINLF
B7: IRS1_Y47_Y47C_YF (peptide)
chain: ARLEFCENEKK
B8: ITGB7_Y753_Y753H_YF (peptide)
chain: LSVEIHDRREF
B9: ITGB3BP_Y32 (peptide)
chain: KSVITYSPTTG
B10: ITGB2_Y131_D128Y_YF (peptide)
chain: PIFLFYLMDLS
B11: ITGA2B_Y319_F320S (peptide)
chain: EQMASYSGHSV
B12: IRS1_Y46_Y47C (peptide)
chain: PARLEYCENEK
B13: ITGAE_Y551_YF (peptide)
chain: GRVFVYRLSEQ
B14: ITGB3_Y660 (peptide)
chain: NTCNRYCRDEI
B15: ITGA2B_Y265 (peptide)
chain: EYFDGYWGYSV
B16: ITGB2_Y131_D128Y (peptide)
chain: PIYLYYLMDLS
B17: ITGA2B_Y197_F202C (peptide)
chain: SWDKRYCEAGC
B18: ITGB2_Y131_YF (peptide)
chain: PIDLFYLMDLS
B19: IRS1_Y151 (peptide)
chain: GEDLSYGDVPP

The other results are listed elsewhere or left out. Rule as the data show it: active = 3.2 or more and inactive = the rest. Most of these values are background signal.
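Also: displayed peptides selected on beads carrying the immobilized SH2 domain, with library peptides lacking any tyrosine serving as negative controls.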

One experiment has as its target SHP2 C-SH2 domain E139D. The experiment in a line: enrichment score (SH2-bound / input frequency) (ratio); bacterial display of known human phosphotyrosine sites (pTyr-Var adds point mutants) read by sequencing; higher = stronger binding; tyrosines were phosphorylated by kinases first. The settings on record: peptide library: pTyr-Var.
For B1, the enrichment score is active: 3.21.
As to B2, the enrichment score is inactive: 1.16.
The same measure, in the same setting: then B3, with inactive: 1.21; and B4, with inactive: 0.811; and B5, with inactive: 0.59.
Same read-out and setting: then B6, with inactive: 0.288; and B7, with inactive: 0.941; and B8, with inactive: 1.45.
For the molecule B9, the enrichment score was inactive: 1.01.
Still for that read-out and setting: then B10, with inactive: 2.4; and B11, with inactive: 0.744; and B12, with inactive: 0.836.
Still for that read-out and setting: then B13, with inactive: 2.52.
The same measure, in the same setting: then B14, with inactive: 1.18.
For B15, the enrichment score is inactive: 1.21.
The same measure, in the same setting: then B16, with inactive: 1.48; and B17, with inactive: 0.67; and B18, with inactive: 1.84.
Still for that read-out and setting: then B19, with inactive: 0.467.

A further experiment addresses SHP2 C-SH2 domain wild-type. Described as above. The settings on record: peptide library: pTyr-Var.
Regarding B1, the enrichment score was inactive: 3.02.
On the same count and under the same terms, then B2, with inactive: 0.809.
Still for that read-out and setting: then B3, with inactive: 1.25; and B4, with inactive: 0.509; and B5, with inactive: 0.608.
Same read-out and setting: then B6, with inactive: 0.27; and B7, with inactive: 0.885; and B8, with inactive: 1.65.
Regarding B9, the enrichment score is inactive: 0.678.
Still for that read-out and setting: then B10, with inactive: 2.55.
Same read-out and setting: then B11, with inactive: 0.51.
The same measure, in the same setting: then B12, with inactive: 0.619; and B13, with inactive: 2.24.
Regarding B14, the enrichment score was inactive: 0.938.
Still for that read-out and setting: then B15, with inactive: 1.27.
Still for that read-out and setting: then B16, with inactive: 1.95.
The same measure, in the same setting: then B17, with inactive: 0.566.
On to B18, for which the enrichment score was inactive: 1.34.
For B19, the enrichment score was inactive: 0.539.

Another experiment concerns the target SHP2 N-SH2 domain L43F. The description is as above. The settings on record: peptide library: pTyr-Var.
B1: the enrichment score is inactive: 2.83.
Still for that read-out and setting: then B2, with inactive: 0.894; and B3, with inactive: 1.32.
The same measure, in the same setting: then B4, with inactive: 0.575; and B5, with inactive: 0.589.
On the same count and under the same terms, then B6, with inactive: 0.211; and B7, with inactive: 0.946; and B8, with inactive: 1.1.
Turning to B9, the enrichment score is inactive: 1.02.
Turning to B10, the enrichment score was inactive: 2.52.
Same read-out and setting: then B11, with inactive: 0.525.
On the same count and under the same terms, then B12, with inactive: 0.743; and B13, with active: 4.95; and B14, with inactive: 1.19.
The same measure, in the same setting: then B15, with inactive: 1.47; and B16, with inactive: 2; and B17, with inactive: 0.612.
Turning to B18, the enrichment score was inactive: 1.79.
On the same count and under the same terms, then B19, with inactive: 0.477.

A further experiment has as its target SHP2 N-SH2 domain T42A. The description is as above. The settings on record: peptide library: pTyr-Var.
For B1, the enrichment score is inactive: 2.5.
The same measure, in the same setting: then B2, with inactive: 0.92; and B3, with inactive: 1.12; and B4, with inactive: 0.598.
Still for that read-out and setting: then B5, with inactive: 0.728.
With B6, the enrichment score was inactive: 0.262.
Same read-out and setting: then B7, with inactive: 0.994; and B8, with inactive: 1.31; and B9, with inactive: 0.863.
Still for that read-out and setting: then B10, with inactive: 2.2.
On the same count and under the same terms, then B11, with inactive: 0.622.
In the case of B12, the enrichment score is inactive: 1.13.
Consider B13, for which the enrichment score is inactive: 2.05.
On the same count and under the same terms, then B14, with inactive: 0.966.
Same read-out and setting: then B15, with inactive: 1.29; and B16, with inactive: 1.32.
For B17, the enrichment score is inactive: 0.576.
The same measure, in the same setting: then B18, with inactive: 1.52.
The same measure, in the same setting: then B19, with inactive: 0.374.

The target of the next experiment is SHP2 N-SH2 domain T52S. The description is as above. The settings on record: peptide library: pTyr-Var.
B1: the enrichment score is inactive: 2.88.
Same read-out and setting: then B2, with inactive: 0.893; and B3, with inactive: 1.43; and B4, with inactive: 0.756.
The same measure, in the same setting: then B5, with inactive: 0.694.
For the molecule B6, the enrichment score is inactive: 0.128.
The same measure, in the same setting: then B7, with inactive: 0.849; and B8, with inactive: 1.25; and B9, with inactive: 0.863.
The same measure, in the same setting: then B10, with inactive: 2.27; and B11, with inactive: 0.556.
The same measure, in the same setting: then B12, with inactive: 0.776; and B13, with active: 6.79; and B14, with inactive: 1.1.
In the case of B15, the enrichment score is inactive: 1.51.
For the molecule B16, the enrichment score is inactive: 1.38.
The same measure, in the same setting: then B17, with inactive: 0.558; and B18, with inactive: 2.
Still for that read-out and setting: then B19, with inactive: 0.479.

Another experiment deals with SHP2 N-SH2 domain wild-type. Described as above. The settings on record: peptide library: pTyr-Var.
On to B1, for which the enrichment score is inactive: 2.88.
As to B2, the enrichment score is inactive: 1.15.
Same read-out and setting: then B3, with inactive: 1.31; and B4, with inactive: 0.65; and B5, with inactive: 0.683.
The same measure, in the same setting: then B6, with inactive: 0.683; and B7, with inactive: 1.17.
Take B8: the enrichment score is inactive: 1.14.
On to B9, for which the enrichment score was inactive: 0.829.
On the same count and under the same terms, then B10, with inactive: 2.25; and B11, with inactive: 0.601; and B12, with inactive: 0.765.
Same read-out and setting: then B13, with inactive: 3.04.
Still for that read-out and setting: then B14, with inactive: 0.957; and B15, with inactive: 1.33; and B16, with inactive: 1.81.
Turning to B17, the enrichment score was inactive: 0.564.
Take B18: the enrichment score was inactive: 1.76.
Same read-out and setting: then B19, with inactive: 0.593.
